No constants are given. Whether binding was seen depends on the method and setting. Binding seen in cells or lysates may run through a third protein. Some entries that bind do so weakly or less than the wild type.
How the values were obtained:
[1] = biological target: Actin-binding LIM protein 1 (ABLIM1), full-length (1-778aa), Flag-tagged (human) (UniProt O14639); test: co-IP; HCT116 (Fig. 7C) or RKO (Fig. 7G) cells transfected with Flag-ABLIM1 constructs or empty vector; Nonidet P-40 lysate; precipitating antibody not stated; immunoblot
[2] = biological target: Flag-tagged ABLIM1 1-401aa (LIM domains) (human) (UniProt O14639); test: as above
[3] = biological target: Flag-tagged ABLIM1 1-216aa (human) (UniProt O14639); test: as above
[4] = biological target: Flag-tagged ABLIM1 402-778aa (human) (UniProt O14639); test: as above
[5] = biological target: Actin-binding LIM protein 1 (ABLIM1), full-length (1-778aa), Flag-tagged (human) (UniProt O14639); test: co-IP; HCT116 and RKO cells transfected with NFKBIA and ABLIM1 for 48 h; Nonidet P-40 lysate; IP with anti-ABLIM1 antibody or control IgG, 4 °C overnight, protein A or G beads; immunoblot. Fig. S4: also with BAY11-7082 or srIĸBα (antibody of that IP not shown)

Sequences of proteins named here, by UniProt entry; tags and fusion partners are left off. A change or cut given only in a name is not applied to a line headed by its entry. A line that says so, or that is headed by a name, gives the form on record, which may keep a tag or linker. Residues count along the entry.
UniProt O14639: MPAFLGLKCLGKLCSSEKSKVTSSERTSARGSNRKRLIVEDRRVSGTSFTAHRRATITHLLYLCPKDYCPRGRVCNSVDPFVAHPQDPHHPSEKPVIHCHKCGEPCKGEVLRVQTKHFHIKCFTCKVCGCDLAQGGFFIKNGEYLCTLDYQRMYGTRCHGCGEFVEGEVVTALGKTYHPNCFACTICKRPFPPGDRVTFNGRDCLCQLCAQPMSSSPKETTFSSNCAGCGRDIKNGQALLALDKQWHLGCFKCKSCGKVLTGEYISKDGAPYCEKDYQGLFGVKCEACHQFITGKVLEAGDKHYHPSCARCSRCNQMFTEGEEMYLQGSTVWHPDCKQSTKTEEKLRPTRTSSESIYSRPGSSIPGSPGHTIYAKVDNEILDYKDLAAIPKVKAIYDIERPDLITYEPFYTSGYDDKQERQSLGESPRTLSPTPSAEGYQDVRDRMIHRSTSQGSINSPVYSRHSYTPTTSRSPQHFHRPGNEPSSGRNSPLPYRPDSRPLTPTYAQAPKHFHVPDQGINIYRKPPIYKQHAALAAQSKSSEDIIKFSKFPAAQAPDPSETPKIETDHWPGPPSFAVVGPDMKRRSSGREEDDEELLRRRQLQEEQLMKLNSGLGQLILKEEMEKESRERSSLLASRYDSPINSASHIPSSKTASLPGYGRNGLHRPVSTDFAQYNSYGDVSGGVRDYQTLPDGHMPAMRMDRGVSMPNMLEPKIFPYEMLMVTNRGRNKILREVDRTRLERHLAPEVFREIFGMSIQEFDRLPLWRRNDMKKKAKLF
Flag-tagged ABLIM1 1-401aa (LIM domains): residues 1-401 of O14639
Flag-tagged ABLIM1 1-216aa: residues 1-216 of O14639
Flag-tagged ABLIM1 402-778aa: residues 402-778 of O14639
UniProt P25963: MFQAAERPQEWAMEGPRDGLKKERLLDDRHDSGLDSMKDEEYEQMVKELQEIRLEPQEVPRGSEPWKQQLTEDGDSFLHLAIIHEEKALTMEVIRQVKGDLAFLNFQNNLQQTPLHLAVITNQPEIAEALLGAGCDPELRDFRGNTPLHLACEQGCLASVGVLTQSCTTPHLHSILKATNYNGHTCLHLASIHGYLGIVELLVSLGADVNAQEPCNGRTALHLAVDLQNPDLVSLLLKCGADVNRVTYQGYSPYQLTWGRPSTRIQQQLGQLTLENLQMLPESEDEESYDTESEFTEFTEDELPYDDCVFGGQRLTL
IĸBα non-phosphorylation mutant (S32/36 A) (P25963, form named): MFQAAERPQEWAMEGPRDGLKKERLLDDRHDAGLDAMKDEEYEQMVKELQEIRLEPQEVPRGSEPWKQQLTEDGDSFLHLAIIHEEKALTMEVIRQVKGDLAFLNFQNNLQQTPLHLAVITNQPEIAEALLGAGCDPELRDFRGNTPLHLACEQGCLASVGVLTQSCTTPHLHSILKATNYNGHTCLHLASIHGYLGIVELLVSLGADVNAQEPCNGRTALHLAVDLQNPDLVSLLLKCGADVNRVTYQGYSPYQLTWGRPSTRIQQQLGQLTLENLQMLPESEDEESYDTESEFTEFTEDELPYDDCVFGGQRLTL

| Substance | binding [1] | binding [2] | binding [3] | binding [4] | binding [5] |
| --- | --- | --- | --- | --- | --- |
| IĸBα in lysates of HCT116 or RKO cells transfected with Flag-ABLIM1 constructs (from UniProt P25963 1-317) | binds | no binding | no binding | binds | – |
| IĸBα non-phosphorylation mutant (S32/36 A) (from UniProt P25963 1-317) | – | – | – | – | binds |
| IĸBα, wide type (full-length), HA-tagged (from UniProt P25963 1-317) | – | – | – | – | binds |
